According to PubChem BioAssay AID686978 (National Center for Advancing Translational Sciences (NCATS), 2013):
“And” between values parts separate entries of the source, which are not always exact repeats. Equal entries are not always repeated. Screen size: about 420,000 compounds; about 64,000 (15%) were called active. This list was built around the results that the source calls inconclusive (neither active nor inactive); the mix of calls is not that of the screen. Calls follow the shape of the dose curve; as a rule, active = well fitted inhibition curve with a large enough effect; inconclusive = small, poorly fitted or top-dose-only effect; inactive = flat fitted curve, though single readings scatter. Potencies beside an inconclusive call are fits to weak or partial responses and may not hold up.

Experiment: qHTS for Inhibitors of human tyrosyl-DNA phosphodiesterase 1 (TDP1): qHTS in cells in absence of CPT; also: nearly all actives have a fitted effect of over 55% in size
Details: DT40 Tdp1-/- hTDP1 cells, no CPT, ATP luminescence, 48 h; activity change, negative = growth inhibition: at 46.2 µM (top of the series)
Method in brief: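 Compound effects on proliferation are scored in DT40 Tdp1-/-;hTDP1 cells in the absence of CPT. ATP levels (CellTiter-Glo luminescence) are recorded after a ≥48 hr, 37 °C incubation.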
% is scaled to controls: 0 for no effect and ±100 for the full control effect; potency is read from the fitted curve at half-maximal effect; tags tell the direction and shape of the fitted curve.

Compound	Potency	activity change, negative = growth inhibition
CCO[C@H]1OC(C(=O)NCc2ccccc2)=C[C@@H](c2ccc(Br)cc2)[C@@H]1CCCO	inconclusive: 25.9 µM [inhibitor, single point]	–
CC(C)(C)NC(=O)CN(C(=O)c1snc(C(=O)NC2CCCCC2)c1N)c1ccc(F)cc1	inconclusive: 25.9 µM [inhibitor, single point]	–
Cc1ccc(-c2csc3ncn(-n4c(C)ccc4C)c(=O)c23)o1	active: 18.4 µM	–
CC(=O)OC1CCC2C3CCC4=C(CC(F)C(=O)C4)C3CCC12C (configuration not stated)	inconclusive: 29.1 µM [inhibitor, single point]	–
CCc1nc2c(sc3nc4c(cc32)COC(C)(C)C4)c(=O)n1CCN(CC)CC	inconclusive: 25.9 µM [inhibitor, single point]	–
O=C(Nc1cc(C(F)(F)F)ccc1N1CCOCC1)c1ccccc1F	–	inconclusive: -30.1% [inhibitor]
OC(c1cc(F)cc(Cl)c1)c1ncc(-c2ccc(Cl)cc2)[nH]1 (configuration not stated)	inconclusive: 29.1 µM [inhibitor, single point]	–
CC(C)(C)c1ccc(C(=O)NCC(=O)OCC(=O)Nc2nc(-c3ccc(F)cc3)cs2)cc1	inconclusive: 29.1 µM [inhibitor, single point]	–
CN(Cc1ccc(F)cc1)C(=O)C(c1ccccc1)c1ccccc1	inconclusive: 29.1 µM [inhibitor, single point]	–
CC1CN(C2CCN(S(=O)(=O)c3ccccc3)CC2)CC(C)O1 (configuration not stated)	–	inactive: -1.6%
CCCN(CCC)CC(O)Cn1cc(/C=C/C(=O)c2ccc(C)cc2)c2ccccc21 (configuration not stated)	active: 20.6 µM	–
c1coc(CNc2nc3sc4c(c3c3ncnn23)CCCC4)c1	active: 11.6 µM	–
CCCn1nnnc1NCc1c(F)cccc1Cl	inconclusive: 29.1 µM [inhibitor, single point]	–
CCCCN(C(C)=O)c1c(CC)nc2ccc(C(=O)NCc3cccs3)cn12	inconclusive: 29.1 µM [inhibitor, single point]	–
Cc1cc(=O)[nH]c(SCc2ccc(Cl)cc2)n1	–	inconclusive: -30.1% [inhibitor]
CC(C(=O)NCc1ccc(Cl)cc1)n1ccc2cc(S(=O)(=O)N3CCCCCC3)ccc21 (configuration not stated)	active: 18.4 µM	–
Cc1ccccc1CC1(CO)CCCN(Cc2ccc(C#CC(C)(C)O)cc2)C1 (configuration not stated)	inconclusive: 29.1 µM [inhibitor, single point]	–
CCN1CCN(S(=O)(=O)c2ccc(OC)c(Br)c2)CC1	–	inconclusive: -33.1% [inhibitor]
CC(c1ccco1)N(C(=O)c1cccs1)c1ccccn1 (configuration not stated)	–	inactive: -13.7%
O=C(c1ccco1)N1CCC2(CC1)CN(c1ccc(-c3ccccc3)cc1)C2	active: 9.2 µM	–
O=C(Nc1nc(-c2cccnc2)cs1)c1ccc([N+](=O)[O-])cc1	–	inactive: -27.9%
N#Cc1ccc(OCC(=O)n2cc(C(=O)c3cc(Cl)cc(Cl)c3O)cn2)cc1	inconclusive: 29.1 µM [inhibitor, single point]	–
COCc1c(C(=O)NCC2CCCN(C)C2)cnn1-c1ncc2c(n1)-c1ccccc1CCC2 (configuration not stated)	–	inactive: -9.49%

Compound	Potency	activity change, negative = growth inhibition
COC(=O)c1cn(C(=O)c2cc(C)cc(C)c2)c2ccccc12	inconclusive: 20.6 µM [inhibitor, single point]	–
COCCCNc1ncnc2sc(C(=O)N3CCCCC3)c(C)c12	inconclusive: 14.6 µM [inhibitor, single point]	–
Cc1ccc(CO/N=C/c2c(O)cc(C)oc2=O)cc1	inconclusive: 9.2 µM [inhibitor, partial curve, poor fit]	–
Cc1cc(N2CCC(C(=O)NCC3CC3)CC2)nc(-c2ccccc2)n1	inconclusive: 29.1 µM [inhibitor, single point]	–
COc1ccc(C2=NS(=O)(=O)N(C)C(C(=O)N3CCC(C(N)=O)CC3)=C2)cc1	–	inactive: 3.51%
O=C(NCc1ccccc1Cl)C1CCCN(S(=O)(=O)c2cccc3nsnc23)C1 (configuration not stated)	inconclusive: 25.9 µM [inhibitor, single point] and inconclusive: 29.1 µM [inhibitor, single point]	–
Cc1ccc(-c2csc3ncnc(SCC(=O)NCc4ccc5c(c4)OCO5)c23)cc1	inconclusive: 22.4 µM [inhibitor, single point]	–
CCOC(=O)c1c(NC(=O)CN2C(=O)NC3(CCC(CC)CC3)C2=O)sc(C)c1-c1ccc(C)cc1 (configuration not stated)	inconclusive: 6.51 µM [inhibitor, full curve]	–
CCN(CC)S(=O)(=O)c1cc(NC(=O)C2=COCCO2)ccc1Cl	inconclusive: 29.1 µM [inhibitor, single point]	–
CC(=O)c1ccc(-c2ccc3c4c(ccc3c2)OC(CNC(=O)C(C)N2CCOCC2)C4)s1 (configuration not stated)	active: 7.31 µM	–
CCOC(=O)C1=C(C)Nc2ncnn2C1c1ccc(N(C)C)cc1 (configuration not stated)	inconclusive: 39.8 µM [inhibitor, partial curve, poor fit]	–
O=c1[nH]c2cccnc2c2ccsc12	inconclusive: 23.1 µM [inhibitor, single point]	–
COc1cccc(NC(=O)CN2CCN(c3nc(-c4cccc(OC)c4)cs3)CC2)c1	inconclusive: 8.2 µM [inhibitor, partial curve, poor fit]	–
COc1ccc(C2CC(c3ccc(F)cc3)n3nc(NS(C)(=O)=O)nc3N2)cc1 (configuration not stated)	inconclusive: 0.58 µM [inhibitor, full curve, poor fit]	–
Cc1nc2cc(-c3ccccc3)nn2c(C)c1CCC(=O)NCc1ccco1	–	inactive: -19.3%
N#Cc1cccc(-c2nc(NCc3cccs3)c3ccccc3n2)c1	–	inactive: -0.951%
O=C1C=C(c2cc(F)ccc2F)C[C@@H](c2ccc(Cl)cc2)C1	inconclusive: 29.1 µM [inhibitor, single point]	–
COc1cc(NC2c3ccccc3C(=O)N2Cc2ccccc2Cl)cc(OC)c1OC (configuration not stated)	–	inactive: -28.4%
CCCCCOc1ccc(C(=O)NCC2(c3ccccc3)CCOCC2)cc1	inconclusive: 16.4 µM [inhibitor, single point]	–
COc1ccc(CN(C)C[C@@H]2OCCCC[C@H](C)Oc3ccc(NC(=O)Nc4ccc(F)cc4)cc3C(=O)N([C@H](C)CO)C[C@H]2C)cc1	inconclusive: 20.6 µM [inhibitor, single point]	–
CN(CC(=O)Nc1ccc(Cl)c(C(F)(F)F)c1)C(=O)C1CC(=O)N(c2ccc3c(c2)OCCO3)C1 (configuration not stated)	inconclusive: 29.1 µM [inhibitor, single point]	–
Cc1ccc2nc(-c3ccc(F)cc3)c(Cc3ccccc3C(F)(F)F)n2c1	inconclusive: 23.1 µM [inhibitor, single point]	–
Cc1cccc(NC(=S)NC(C)C(c2ccccc2)N2CCN(C)CC2)c1C (configuration not stated)	active: 25.9 µM	–

Compound	Potency	activity change, negative = growth inhibition
COc1ccc(-c2ccc(C(=O)N(C)Cc3csc(C)n3)c(N3CCC(N4CCc5ccccc5C4)CC3)n2)cc1	–	inactive: -21.5%
CCOC(=O)C1(C)C=C(Nc2ccccc2)C(=O)N1c1ccccc1 (configuration not stated)	inconclusive: 13 µM [inhibitor, partial curve]	–
CC1CC(C)CN(C(=O)COC(=O)/C=C/c2ccco2)C1 (configuration not stated)	–	inactive: -8.13%
CCOc1ccc(S(=O)(=O)Nc2ccc3c(c2)OCO3)cc1	inconclusive: 29.1 µM [inhibitor, partial curve, poor fit]	–
Oc1oc(-c2ccc(Br)cc2)nc1C=Nc1ccc(Br)cn1	–	inconclusive: -30.1% [inhibitor]
COc1ccccc1CCNC(=O)C1CCN(c2nnc(-n3cccc3CNc3ccc(C)cc3)s2)CC1	active: 23.1 µM	–
CC1(C(=O)NCC2CC2)Cc2c(-c3ccc4c(c3)OCO4)ccnc2O1 (configuration not stated)	active: 5.17 µM	–
Cc1cc(C=O)c(C)n1-c1ccc2c(c1)OCO2	inconclusive: 29.1 µM [inhibitor, single point]	–
Cc1cc(C)n(C2CCCCC2OC(=O)c2ccccc2)n1 (configuration not stated)	inconclusive: 16.4 µM [inhibitor, partial curve, poor fit]	–
COc1ccccc1NC(=O)c1ccc2c(c1)N(CC#N)C(=O)C(C)(C)O2	inconclusive: 0.82 µM [inhibitor, full curve, poor fit]	–
Cc1c(C(=O)N(Cc2ccc(N(C)C)cc2)CC2CCCO2)oc2ccc(Cl)cc12 (configuration not stated)	active: 20.6 µM	–
O=C(CSc1nnc(-c2ccc(Br)o2)n1Cc1ccccc1)c1ccccc1F	inconclusive: 18.4 µM [inhibitor, single point]	–
O=C(O)c1cccc(Nc2ncnc3c2cnn3-c2ccccc2)c1	–	inactive: 1.14%
CCCNC(=O)CSc1nnc(NC(=O)C2CC(=O)N(c3ccccc3OC)C2)s1 (configuration not stated)	–	inactive: 3.27%
O=C(NCc1ccncc1)c1ccc(Cl)c(S(=O)(=O)N2CCOCC2)c1	–	inactive: -21.7%
COc1ccc(Cl)cc1NC(=O)c1cn(C2CCCCC2)c(=O)c2c1c1ccccc1n2C	inconclusive: 11.6 µM [inhibitor, partial curve]	–
CCOC(=O)N1CCC(NC(=O)C2CCN(S(=O)(=O)c3ccc4c(c3)oc(=O)n4C)CC2)CC1	inconclusive: 18.4 µM [inhibitor, single point]	–
COc1ccc(N2CCN(c3csc4ccc(Cl)cc4c3=O)CC2)cc1	inconclusive: 29.1 µM [inhibitor, single point]	–
COc1cc2c(cc1OC)CN(C(=O)CSc1ccccc1C)CC2	inconclusive: 16.4 µM [inhibitor, single point]	–
N#Cc1cccc(C(=O)Nc2ccccc2C(=O)NC2CC2)c1	–	inconclusive: -34.5% [inhibitor]
CCn1c(-c2ccco2)nc2ccccc21	inconclusive: 18.4 µM [inhibitor, single point]	–
